Measured values from the supplement of paper PMC11417369.
This is one part of the list.

Test system: PfAP2-HC AP2 domain (GST-tagged)
Test: gcPBM binding intensity (ln(normalized median fluorescence intensity)); higher = stronger DNA binding
Method in brief: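 An Agilent 4 × 180k array of primer-extended double-stranded 36-bp intergenic genomic probes, with negative controls, was incubated for 1 h with GST-tagged P. falciparum DNA-binding domains expressed in E. coli. Alexa488 anti-GST antibody detected bound protein, scanned at 488 nm. Binding intensity is the highest Masliner-normalised natural-log median intensity across replicate spots of either probe orientation.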

Sequence | gcPBM binding intensity (ln)
AATTTAAACAAGGATCCACACACCCCAAAAAAAAAA [CACACA_site8125] | 10.7
TAAATTTAGAAACACACACACATATATATATATATA [CACACA_site847] | 10.4
TTTATATTATTTTAAACATGCACAAGTATAATTTAT [TGCATGCA_site233] | 9.49
TGAACAGACGAGCACACACACACATATATATATATA [CACACA_site1019] | 10.3
TTTTCATATGAACAATGTACACATCGTATAATTCTG [XGTACX_site4756] | 9.68
CTCATAAAAATAACGTTAACATAAATTTATTGTGAT [XGTACX_negctrl_site169] | 9.64
TATATGTCAATATCTACACACATATATATAATTATT [CACACA_site3156] | 9.86
AATATAAAACATATCACACATATGTATTTATGTATA [CACACA_site5763] | 9.66
ATACATATTAAAGGATGTACACTTATATTTTTTAGA [XGTACX_site5406] | 9.52
TGTGGGAATAACCACACACACACACGCATATAAATA [CACACA_site7634] | 10.9
TTCTGTTGGAATATATGTACATAATAAAAAAAAATA [XGTACX_site1741] | 9.52
TTTTTTTTTTTTGTAATACACACCACTATATGTTAT [CACACA_site1844] | 9.84
AATAAATAAAAAAAAAAAAAAAAAAAAAAAAAAAAA [XGTACX_negctrl_site343] | 8.8
TGTAGTCTGGAGAAAAGTACACAGTATCTGGTAACA [XGTACX_site2010] | 9.63
TATGGCAAAACATTCACACATATTTATATATGTGTA [CACACA_site5588] | 9.67
AGTTTTATAAAAATATGTACTTATATACACATGTAT [XGTACX_site4022] | 9.82
TATTCTGGTGTAAATGCACACAGAAGAAGAAAAAAA [CACACA_site9225] | 9.75
AAGGACACCTTCAAAACACACATACAAATAAATAGA [CACACA_site5771] | 9.82
TACATACAGATATATACACACATATATAATATATAT [CACACA_site4376] | 10

Sequence | gcPBM binding intensity (ln)
TACATACCTATATACACATGCATATTTACATATATT [TGCATGCA_site206] | 9.96
AAAATTAAATTATAAGCACACACATATATATATATA [CACACA_site9105] | 9.86
GTAAAAATACAAAAGGTGCTCAAACAATATAATACA | 9.86
GAATATTAAACAAACACACACACATATATTTATATA [CACACA_site7563] | 11.1
AATGGATTGATAAGTGGTACACACATATATATTATA [XGTACX_site6086] | 9.89
TATATAATATATATGACACACATATTTATATAAATA [CACACA_site4054] | 9.57
TTGATATGTACAGGCACACATAAATTTCACAAATAT [CACACA_site3999] | 9.8
CTTTAGTTTTTAATGTGTACTGAATTTGAATAGTAG [XGTACX_site7920] | 9.4
CGTATTATTTTATAAACACACAAGGGGGCATGTATA [CACACA_site6489] | 9.9
ATATAATTAAAAACATGTACATATATATATATATAT [XGTACX_site2882] | 9.61
CATAAATGTATATAAACATGCAAGGACAGACTTTTA [TGCATGCA_site900] | 9.75
TAAGTCGTTATAAGCACACACATAAATAAAAATAAA [CACACA_site1574] | 10
AAGGGTTATAAAAATTGTACTTTTTTTATTTTTTTT [XGTACX_site1313] | 9.72
ATATATTTATATAGGTGTACATATTTTGCTATTCAA [XGTACX_site5199] | 9.62
TCAATTTTTTAATGTTGTACTTTGTAAAAAAAAATA [XGTACX_site8481] | 9.32
ATACCAAATGAATAATGTACATACGAACATACATAT [XGTACX_site1301] | 9.76
GTACATTGTAAGGATGGAAAAGCTAAACATTATAAT [XGTACX_negctrl_site339] | 9.65
AAAAGATTAAGTAGAATAATGTTCTTTCCCAACATA [GTGCAC_negctrl_site223] | 9.45
ATATTTTTAACCAAGGACACAATTCTTGTATTGTTA [CACACA_negctrl_site1326] | 9.43

Sequence | gcPBM binding intensity (ln)
CATTTAGAATAAGGCACACATAAAGAACACTTTCCA [CACACA_site130] | 9.93
TTATCTTAATTGTGATTATAAAGATATTCTTTCTAT [GTGCAC_negctrl_site410] | 9.52
CAACCTCATAATATTTAACACACAAAATTATATGTA [CACACA_site8496] | 9.66
AGAAAAATTATATATACACACTTATATTTATATATA [CACACA_site5555] | 9.67
AGTATACGCAAACACACACACACAAAAAAAAAAAAA [CACACA_site426] | 11.2
TATTATATTTATATTTGTACTTAAAATATTATACAC [XGTACX_site2881] | 9.65
AAATAAGAAAATCATAGTACATAGGAATAGAAGAAC [XGTACX_site3135] | 10.1
AATGTCATGATACATACACACACATACACATACACA [CACACA_site8665] | 10.7
ATATCTTATTTTCCTTGTACTTATTTCATAATTACA [XGTACX_site3894] | 9.82
TATTAAATATTGTAATGTACATATATAATATAATAT [XGTACX_site1809] | 9.57
AATTTCCCATATTACACACATACTATGATATATAAA [CACACA_site3834] | 9.78
CAATAAACCATTTTTTGTACATAAAAATAGGTATTG [XGTACX_site1892] | 9.5
TAAATATGTATAAATTGTACAAAATATATGAATAGT [XGTACX_site5659] | 9.89
TTTTTTTTTTTAAATTGTACTTATTTTATATTATAT [XGTACX_site1077] | 9.52
CATACACCCATACATACACACATACATATATATATA [CACACA_site8591] | 9.98
ATATAATGTTTCACATGTACAAACAACACAAAAAAA [XGTACX_site1899] | 9.88
AAAGAGAAATTTAAATGTACATTTGTTCTAAGTGTA [XGTACX_site3602] | 9.52
AATTATGAAAAATCAAGTACAAACAAAATCATAATT [XGTACX_site5665] | 9.85
AAAAGATATATTATATGTACTAATTATATGATAAAT [XGTACX_site4192] | 9.67
